According to PubChem BioAssay AID485294 (National Center for Advancing Translational Sciences (NCATS), 2010):
Where “and” joins values, the source holds several entries; their conditions need not be identical. Identical values can stand only once. About 150 (0.041%) of roughly 370,000 compounds were called active. The inconclusive results got no clear call from the source; some entries with a clear call stand among them for comparison. Calls follow the shape of the dose curve; as a rule, active = well fitted inhibition curve with a large enough effect; inconclusive = small, poorly fitted or top-dose-only effect; inactive = flat fitted curve, though single readings scatter. Potencies beside an inconclusive call are fits to weak or partial responses and may not hold up.
Also: nearly all actives have a fitted effect of over 25% in size.
Potency is read from the fitted curve at half-maximal effect; tags tell the direction and shape of the fitted curve.

What follows are compounds tested against Beta-lactamase (Escherichia coli (strain K12)) (UniProt P00811) (assay: qHTS Inhibitors of AmpC Beta-Lactamase (assay with detergent)). Conditions: AmpC hydrolysis of nitrocefin, absorbance 480 nm, 0.01% Triton; series mostly up to 114 µM.
Sequence of UniProt P00811 (P00811 whole entry, looked up): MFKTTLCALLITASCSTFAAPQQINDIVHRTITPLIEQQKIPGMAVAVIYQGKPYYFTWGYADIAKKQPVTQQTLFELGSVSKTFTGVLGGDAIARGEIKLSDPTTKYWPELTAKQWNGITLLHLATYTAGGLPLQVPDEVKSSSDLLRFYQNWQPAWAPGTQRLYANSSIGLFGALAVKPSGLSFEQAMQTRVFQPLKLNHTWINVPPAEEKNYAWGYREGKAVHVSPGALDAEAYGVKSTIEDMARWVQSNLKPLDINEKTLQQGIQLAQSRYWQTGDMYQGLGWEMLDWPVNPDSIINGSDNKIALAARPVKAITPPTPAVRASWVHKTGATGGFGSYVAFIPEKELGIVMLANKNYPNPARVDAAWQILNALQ
Procedure, shortened: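 AmpC (5.3 nM in the dispensed reagent) in 20 mM phosphate pH 7.0 with 0.01% (detergent screen) or 0.0001% Triton X-100 was preincubated with compounds for 15 min at room temperature. Nitrocefin was then added from an 800 uM solution, and hydrolysis was followed at 480 nm.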
In the case of `Cc1ccc2cc(NC(=O)c3ccccc3)ccc2n1`, the Potency is reported as “inactive”.
With `O=C(NNC(=O)c1ccco1)c1cccc([N+](=O)[O-])c1` the Potency was inconclusive: 31.6 µM [inhibitor, full curve, poor fit].
In the case of `CC1CC(N(C(=O)c2ccco2)c2ccccc2)c2ccccc2N1C(=O)c1ccco1` (stereo unspecified), the Potency is reported as inconclusive: 22.4 µM [inhibitor, single point].
In the case of `CC1(C)Cc2c(cnn2-c2cccc(F)c2)C(NC(=O)CN2CCCC2=O)C1` (stereo unspecified), the Potency is reported as “inactive”.
For `Cc1oc2c(c1C(=O)c1ccccc1)C(=O)C(=O)c1ccccc1-2`, the Potency was “inactive”.
With `Cc1ccc2nc3n(c(=O)c2c1)-c1ccccc1C(=O)NC3Cc1ccccc1` (stereo unspecified) the Potency was “inactive”.
With `CCOC(=O)c1ccc(NC(=O)Cn2nnc(-c3ccc(F)cc3)n2)cc1` the Potency was inconclusive: 100 µM [inhibitor, single point].
`Cc1ccc2oc(=O)c3cnn(CC(=O)NCCCOC(C)C)c3c2c1` was tested, and the Potency was inconclusive: 0.501 µM [inhibitor, full curve, poor fit].
In the case of `CC(C)(C)OC(=O)N1CCC2(CC1)C(C#N)=C(N)OC1=C2C(=O)CCC1`, the Potency is reported as inconclusive: 2.82 µM [inhibitor, full curve].
In the case of `O=C(Nc1ccccc1)N1CCCc2ccccc21`, the Potency is reported as inconclusive: 1.41 µM [inhibitor, full curve, poor fit].
With `CCN(CC)CCN1c2ccccc2Sc2ccccc21` the Potency was inconclusive: 100 µM [inhibitor, single point].
For `N#CCCn1c2ccccc2c2nc3ccccc3nc21`, the Potency was inconclusive: 1.41 µM [inhibitor, full curve, poor fit].
For `COc1ccc(/C=C/C(=O)NC(=S)Nc2ccc(S(N)(=O)=O)cc2)cc1OC`, the Potency was inconclusive: 89.1 µM [inhibitor, single point].
For `CCOc1ccc(CNC(=O)Cn2c(=O)c3cccn3c3ccccc32)cc1`, the Potency was inconclusive: 6.31 µM [inhibitor, full curve, poor fit].
In the case of `COc1ccc(CCN2C(=O)CC(Cc3ccc(Br)cc3)C2=O)cc1OC` (stereo unspecified), the Potency is reported as inconclusive: 0.708 µM [inhibitor, full curve, poor fit].
In the case of `O=C1CCCC/C1=C\Nc1ccccc1C(=O)O`, the Potency is reported as inconclusive: 1.58 µM [inhibitor, full curve].
`N#Cc1cc([N+](=O)[O-])ccc1N1CCCC1` was tested, and the Potency was inconclusive: 25.1 µM [inhibitor, partial curve].
With `CCN(CC)C(=O)Cn1cc(C(=O)C(=O)N(C)C2CCN(C)CC2)c2ccccc21` the Potency was inconclusive: 79.4 µM [inhibitor, single point].
With `CCOc1ccc(NC(=O)CC2C(=O)NCCN2C(=O)Nc2ccccc2)cc1` (stereo unspecified) the Potency was “inactive”.
With `CCc1ccc(-c2cc(C)no2)cc1S(=O)(=O)Nc1cccc(CN2CCCC2)c1` the Potency was “inactive”.
With `O=C(COC(=O)/C=C/c1cccc(Cl)c1)NC1CC1` the Potency was inconclusive: 89.1 µM [inhibitor, partial curve, poor fit].
In the case of `CC(C)(C)NC(=O)C(c1ccc(O)cc1)N(Cc1ccccc1)C(=O)CCC(=O)Nc1nccs1` (stereo unspecified), the Potency is reported as inconclusive: 3.55 µM [inhibitor, full curve, poor fit].
In the case of `CCOC(=O)C1=C(c2ccccc2)OC(N)=C(C#N)C1c1cccnc1` (stereo unspecified), the Potency is reported as “inactive”.
`CCOC(=O)c1cc2nc(Nc3ccc(OC)cc3)sc2s1` was tested, and the Potency was inconclusive: 5.01 µM [inhibitor, full curve, poor fit].
For `[O-][n+]1c2c(nn1-c1ccccc1)/C(=N/O)CCC2`, the Potency was “inactive”.
With `Nc1ccccc1-c1nnc(SCc2ccccc2Cl)[nH]c1=O` the Potency was inconclusive: 25.1 µM [inhibitor, single point].
For `COc1ccccc1-c1c(NC(=O)c2ccco2)n(-c2ccccc2)nc(C)c1=O`, the Potency was inconclusive: 0.631 µM [inhibitor, full curve, poor fit].
`O=C(Nc1ccc(Cl)cc1)N1CCC(c2nc(-c3ccccc3Cl)no2)CC1` was tested, and the Potency was “inactive”.
In the case of `COc1cc(Cl)c(CN2CCC(CO)(CCOc3ccccc3)CC2)cc1OC`, the Potency is reported as inconclusive: 0.631 µM [inhibitor, full curve, poor fit].
With `CCC(C)c1ccccc1NC(=S)Nc1cccnc1` (stereo unspecified) the Potency was inconclusive: 63.1 µM [inhibitor, partial curve, poor fit].
In the case of `O=C1C(=O)N(CNc2cccnc2)c2ccccc21`, the Potency is reported as inconclusive: 0.631 µM [inhibitor, full curve, poor fit].
With `CN(C(=O)c1ccc(C#N)cc1)c1nnc(-c2cnccn2)s1` the Potency was inconclusive: 22.4 µM [inhibitor, full curve, poor fit].
`COc1cccc(C(=O)Nc2cc(C(=O)NCc3ccc(C)cc3)ccc2N2CCC3(CC2)CC(c2ccccc2)=NO3)c1` was tested, and the Potency was inconclusive: 3.98 µM [inhibitor, full curve, poor fit].
With `O=C(COc1ccc(C(=O)NCCc2ccccc2)cc1)Nc1ccccc1` the Potency was inconclusive: 35.5 µM [inhibitor, single point].
With `CCCOc1ncnc2c1[nH]c1ccc(C)cc12` the Potency was “inactive”.
In the case of `COc1ccc(CNC(=O)c2cc(C3CC3)on2)cc1`, the Potency is reported as inconclusive: 0.355 µM [inhibitor, full curve, poor fit].
`COc1ccccc1-n1ccnc1SCC(=O)NCc1ccco1` was tested, and the Potency was “inactive”.
`COc1ccc(OCc2cc(C(=O)N3CCCC(CO)C3)no2)c2ccccc12` (stereo unspecified) was tested, and the Potency was inconclusive: 3.16 µM [inhibitor, full curve, poor fit].
With `Cc1ccc2nc(C3CCN(CC(=O)N4CCCCCC4)CC3)[nH]c2c1` the Potency was inconclusive: 0.631 µM [inhibitor, full curve, poor fit].
In the case of `COc1ccc(CN(C)C(=O)C23CC4CC(CC(C4)C2)C3)c(OC)c1`, the Potency is reported as inconclusive: 2.24 µM [inhibitor, partial curve, poor fit].
`CC1(C)CN=c2s/c(=C\c3ccc(Cl)cc3)c(=O)n2C1` was tested, and the Potency was “inactive”.
For `CC1(C)C([N+](=O)[O-])C(c2ccc(O)cc2)NC(c2ccc(O)cc2)C1[N+](=O)[O-]` (stereo unspecified), the Potency was inconclusive: 2.82 µM [inhibitor, full curve, poor fit].
In the case of `COc1ccc(NS(=O)(=O)c2cc(NC(=O)c3cnccn3)ccc2N2CCCC2)cc1`, the Potency is reported as inconclusive: 0.631 µM [inhibitor, full curve].
In the case of `O=C(CNS(=O)(=O)c1ccccc1)OCC(=O)c1c[nH]c2ccccc12`, the Potency is reported as “inactive”.
For `COCCNC(=O)CCCn1c(=O)c2cc(OC)c(OC)cc2n(CC(=O)c2ccc(Cl)cc2)c1=O`, the Potency was inconclusive: 79.4 µM [inhibitor, single point].
In the case of `CCN1CCN(S(=O)(=O)c2ccc(Cl)c(C(=O)N(C)Cc3ccccc3)c2)CC1`, the Potency is reported as “inactive”.
For `O=C(Cc1cccc(NC(=O)C2CCN(C(=O)CCc3ccccc3)CC2)c1)Nc1cccc(C(=O)N2CCCC2)c1`, the Potency was “inactive”.
For `COc1cccc(C2SCC(=O)N2c2cccc(C)c2)c1OC` (stereo unspecified), the Potency was inconclusive: 112 µM [inhibitor, partial curve, poor fit].
In the case of `O=C(Nc1ccc(F)cc1)c1nc[nH]c1C(=O)Nc1ccccc1[N+](=O)[O-]`, the Potency is reported as inconclusive: 63.1 µM [inhibitor, partial curve, poor fit].
`Cc1ccc(S(=O)(=O)NCCC(=O)N2CCC(C)CC2)cc1` was tested, and the Potency was inconclusive: 100 µM [inhibitor, partial curve, poor fit].
In the case of `CC(NC(=O)N(Cc1ccccc1)Cc1ccc2c(c1)OCO2)(C(F)(F)F)C(F)(F)F`, the Potency is reported as inconclusive: 50.1 µM [inhibitor, partial curve, poor fit].
With `CCN1CCN(c2cc(C)c3cc(NC(=O)c4ccc(OC)c(OC)c4)ccc3n2)CC1` the Potency was “inactive and inconclusive: 10 µM [inhibitor, full curve]”.
For `NS(=O)(=O)c1cc2c(cc1Cl)NC(C(Cl)Cl)NS2(=O)=O` (stereo unspecified), the Potency was inconclusive: 15.8 µM [inhibitor, partial curve].
In the case of `CCOC(=O)N1CCN(C(=O)COc2cccc3c2CCN(CC)C3=O)CC1`, the Potency is reported as “inactive”.
`COc1ccc(CNC(=O)C(C)n2c(=O)cc(C)c3c(C)nn(-c4ccccc4)c32)cc1` (stereo unspecified) was tested, and the Potency was “inactive”.
In the case of `COCCN1CCN(Cc2ccc(C(=O)NC(C)C)cc2)C(=O)C1=O`, the Potency is reported as “inactive”.
In the case of `CN(Cc1nc2ccccc2c(=O)[nH]1)CC(O)COCc1ccco1` (stereo unspecified), the Potency is reported as inconclusive: 100 µM [inhibitor, single point].
In the case of `COc1ccc(CN2CCN(C(=O)c3cc(-c4cccnc4)nc4ccc(Cl)cc34)CC2)c(OC)c1OC`, the Potency is reported as “inactive”.
`CCOC(=O)C1CCN(/C=C2/C(=O)NC(=S)N(c3cccc(OC)c3)C2=O)CC1` was tested, and the Potency was “inactive”.
With `COc1cccc(NC(=O)Cc2cccs2)c1` the Potency was “inactive”.
With `CCC(C)NC(=O)COC(=O)c1cc([N+](=O)[O-])ccc1Sc1nc(C)cs1` (stereo unspecified) the Potency was inconclusive: 20 µM [inhibitor, single point].
With `Cc1cc(C)n(-c2nc3sc4c(c3c3nnc(SCC(N)=O)n23)CC(C)(C)OC4)n1` the Potency was inconclusive: 12.6 µM [inhibitor, partial curve, poor fit].
`C=CCNC(=O)NC(=O)COC(=O)/C(C#N)=C/c1cc(C)n(CC(C)C)c1C` was tested, and the Potency was inconclusive: 0.891 µM [inhibitor, full curve].
In the case of `OCCNc1nc(-c2ccccc2)c2cc(Br)ccc2n1`, the Potency is reported as inconclusive: 0.562 µM [inhibitor, full curve, poor fit].
`CC(C)CC(=O)Nc1ccc(C(=O)Cn2nc(C(=O)O)c3ccccc3c2=O)cc1` was tested, and the Potency was inconclusive: 39.8 µM [inhibitor, single point].
In the case of `CN(C)CCCNC(=S)N(CCCO)Cc1cc2cc3c(cc2[nH]c1=O)OCO3`, the Potency is reported as inconclusive: 5.01 µM [inhibitor, full curve].
